Measurements taken from the supplement of paper PMC3334620.
Whole data set: some 33,000 sequences, median “E-score (-0.5 to 0.5)” near -0.04, cut for the highest 2% near 0.36. The list shows a part of the results.

Target: T1, Hmlalpha2 (UniProt P0CY09)
T1 sequence: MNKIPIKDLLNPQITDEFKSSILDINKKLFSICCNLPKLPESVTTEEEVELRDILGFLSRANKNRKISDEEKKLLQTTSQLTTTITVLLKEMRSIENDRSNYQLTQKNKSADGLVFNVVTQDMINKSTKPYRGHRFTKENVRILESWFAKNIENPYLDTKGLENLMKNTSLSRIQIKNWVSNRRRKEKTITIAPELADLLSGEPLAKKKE
Test: PBM E-score (8-mer binding enrichment) (E-score (-0.5 to 0.5)); higher = stronger / more preferred TF binding; most listed sequences are background and not binding sites
Details: protein concentration: 200 nM; construct: GST-full length
Summary of the method: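 For each ungapped eight-base word taken together with its reverse complement, the Universal PBM Analysis Suite assigned an E-score. Binding data came from GST-tagged yeast transcription factors, applied at about 100-200 nM, on universal all-10-mer Agilent arrays made double-stranded by primer extension. Fluorescent anti-GST marked bound protein, and scans were normalised with masliner.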

Sequence	PBM E-score
CAAGAACG	0.144
GATGTGCA	-0.091
ATCAAATA	0.0702
ATGTTTTC	0.421
ATACCTGC	-0.0573
CCATTCAA	0.127
AGCTAATG	-0.0817
ATCGTAAT	0.273
CGAGACAA	-0.0967
ACAAAGCA	0.24
AGCTCACG	-0.0176
ACTTAACA	0.388
CGCTACAC	0.255
CGCCGCGC	-0.047
CAGAAGCC	-0.169
TATCGCAA	-0.0522
GAGTGAAC	-0.0242
AATGTGTA	0.371
CACTATAC	0.129
GGAGACAC	-0.0636
AGGGACGG	-0.331
ACATCTAA	0.0565
GCGCGCCA	0.0344
CCTCGCAA	-0.21
AACCCTCG	-0.0216

Sequence	PBM E-score
CAGAGCGA	-0.187
GTGGTTTA	0.0203
AGGGGCGA	-0.301
TTATTCAA	0.248
AGCAGTAA	0.0836
ATGATAGG	-0.27
AGTCAAAT	0.0681
AGGGTCCA	-0.327
GCATACGC	0.0496
ATACCCGA	-0.119
AGAGTAGG	-0.0491
ACTCTTGC	-0.055
CGCTTCAC	-0.034
GGGGAACA	-0.173
GAATTGTC	-0.0602
CGACCCAA	-0.0413
ATCTGAGG	-0.187
ACGTTCTC	0.14
AGCAGAGG	-0.25
CTCCCGCC	-0.181
CTAAGTGA	0.106
ATGCTATC	-0.0381
TCCAGAAA	0.15
CAGTTACG	0.0563
ACTCGATC	0.0217

Sequence	PBM E-score
GGTGAGAA	-0.0632
CAAGGCGA	-0.143
CACTTGCA	-0.0966
ACTGTGAA	0.0776
ACTCTATG	0.0349
ACGGTCAG	-0.0812
AGGAAACG	-0.152
CCCGTAAC	0.00141
TGAGGCAA	-0.138
ACATTGAG	0.0552
GACTTAGA	-0.0336
CAACAAAA	0.23
TCCGCGGA	-0.0621
TTACATAA	0.474
CACCCTTC	-0.182
CTCCGGAG	-0.341
TGCGAACA	0.126
ATCGCTAG	-0.143
GGGGAAGA	-0.268
AAAATGAG	-0.0631
CACTGTGC	0.0252
CACAGGGG	-0.0674
AATGACGG	-0.0373
CCTGTCGA	0.0365
CTGGTAAC	0.0518

Sequence	PBM E-score
ACCATCCC	-0.217
ACTCCAAA	-0.0902
CTTCCCTA	-0.266
AGTTGCCA	-0.222
CTGCTAAC	-0.0554
ACCACACC	-0.188
AAGGAGGT	-0.27
GGGACCCC	-0.336
AGCCGCTG	-0.237
ACCCGTGA	-0.178
CACCTTCA	-0.0799
CAAGTACC	0.0735
AGCGCCAT	-0.21
ACGGAGTG	-0.0802
AACTCTAG	-0.0239
AGATCCCT	-0.175
AGGTCGGC	-0.305
CTCCTCGC	-0.164
AGCCGCTC	-0.0797
ATATGCGG	-0.0308
AAACTCGT	0.0763
CCCTTCAA	0.0627
ACTCGAGC	-0.0138
AAATCGGT	-0.143
TAGGAGAA	0.122

Sequence	PBM E-score
AGTATTTC	0.0665
ATGACCGG	-0.246
TATGTGGA	0.123
GATTCTCC	-0.339
CCCCTGAC	-0.00088
GTGGATTA	-0.0557
AGCAGGAC	-0.0809
CACTCAGA	-0.0299
AACGATCA	0.0598
AAACTGAG	-0.191
CAGTTAGC	-0.262
GTGGCCGA	-0.22
ACTAGGAT	0.0792
CCCGTACC	-0.247
ATAAGCGG	-0.219
AATCTGGG	-0.297
GCACCCAC	0.0011
AAGGGGAA	-0.0477
AGCTAGGA	-0.163
AACAGACT	0.105
CAGTGGTA	-0.142
CCCCGAAC	-0.199
AGTAGAAG	-0.025
AAGACAGT	-0.0478
ACAGGGGC	-0.195

Sequence	PBM E-score
AAAGCTAC	0.0863
CACCAACG	-0.0538
CTCCTCTA	-0.127
TCGTCTCA	-0.136
CCCCCGCG	-0.241
CAGCAAAA	0.0513
GCATTCGA	-0.118
CTCTTACC	0.207
AAATTTCG	0.0127
AGCAGCCT	-0.0877
CCGTAAAA	0.12
GGGTAAAA	0.185
GACGGAAA	-0.16
CTTGCCCA	-0.093
AGGAAACC	-0.0996
AGTCAGTG	-0.191
ACACGGGG	0.3
AATGAGAG	-0.123
AACACTGT	0.143
CCGCGGAC	-0.239
ATTGGCCC	-0.212
CACCAGCG	-0.243
ATACTACA	0.32
AACTTAAA	0.232
AACGTTTC	-0.00212

Sequence	PBM E-score
CAGTAAAG	0.00916
GGTAGTGA	-0.219
CGCAGAAA	-0.155
GGACGACA	0.053
GCTTCAGA	-0.171
ATCCAAAA	0.0105
GAACTAGC	-0.178
CTCATGAG	-0.0301
CCATAAGA	-0.237
AGCGAATG	-0.114
ACCATACG	0.0287
AGCGGGGC	-0.167
AAGGCCTG	-0.121
GGTTTACA	0.396
AGTAACGC	0.114
AAACATGC	0.37
ATTAGCTG	0.0197
AAAGTTTA	0.25
TAATTACA	0.462
CGGGCGCA	-0.164
GATGAAAC	0.15
AACCTTCC	-0.0676
CTGAAATA	-0.0461
CAGAAACG	0.156
GCGTCACC	-0.168

Sequence	PBM E-score
ATCGAAAA	0.0165
ATAGCCAC	-0.157
CTTCTACC	-0.0533
CCGATGTA	0.155
ACATAGGC	0.351
CCTCCGCG	-0.147
AGACCGTC	-0.162
AAAGTACC	0.107
TATAGAAA	0.116
ACTATAGT	0.0634
AATATCAG	-0.0136
GTTCGCAA	0.0948
CTGCGGCC	-0.161
CTGCGGGC	-0.187
GAAATAGA	0.0697
GGCCCCCC	-0.464
GAAGTACC	-0.0771
GTCTCGCA	-0.167
CAGTCGTA	0.0455
AATCGGGT	0.0647
ACAACACC	0.182
CTTAAAAC	0.201
CGCTAGAC	-0.226
CGCCGGCG	-0.0773
CATTAAAG	0.248

Sequence	PBM E-score
CTAAGAGC	-0.324
AACCTCGA	-0.0213
ATTTGAGA	-0.0947
ACGGCGTA	0.242
GTGTTCTA	0.233
AAAAGTAT	0.0425
AAGGAACC	-0.0327
AGAAGTGC	-0.0933
AATCAACC	-0.103
AGCAAGCT	-0.132
AAGACCCC	-0.117
AAAATACC	0.0851
CGAATCAC	0.0204
TAATGGAA	0.1
ACTCACCA	-0.0493
ACGCTGAG	-0.111
TAGACTGA	-0.0778
CTTCTAAA	-0.0253
GTTCGGCA	-0.0575
CGATCCAG	-0.137
AGGTGGAT	-0.178
ACGATGAT	-0.0322
CTTTTCTA	-0.207
ATCAGTTA	0.223
GACTAAGA	-0.083

Sequence	PBM E-score
AAGCGGAT	-0.124
AAGACGTA	0.163
ATGAGGTA	0.136
ATAAAAAA	0.135
CGTGGCGA	-0.198
TCCGCACA	-0.139
CACTCCTA	-0.0161
AACGTTAG	0.0576
GGGTACTA	0.134
CGGTTCAC	-0.197
CTAAATTC	-0.0565
ATTCCACG	0.00592
TGACACCA	-0.0928
GTGTCTGA	-0.041
AGTGGCGA	-0.145
GCAACATA	0.219
CGGAAGCC	-0.151
GCGAAGAA	-0.0224
GTGTCCTA	0.0274
AGTAGTGC	-0.153
GGCGGCAA	-0.158
ATGGCCGA	0.0453
GCCTAAAC	-0.0969
CGGCCTGC	-0.0493
TCGGGTAA	0.145

Sequence	PBM E-score
AGCGCGTG	0.107
GCGGAGAC	-0.0477
GGGATGAC	-0.259
GAACATAA	0.191
CGTCATAG	-0.242
CCAGCTGG	-0.0862
TCACCGCA	-0.093
AACCGCGA	0.0922
AGGGCGAC	-0.233
CCACCTCC	-0.239
ACTTCCGA	-0.0716
ACCGTCAA	-0.0762
GAATACGC	0.357
CGTTCAGC	-0.159
AGGCCCAC	-0.272
AAGCCGAC	-0.155
AACTTGGA	-0.0733
CGGCTGTA	-0.109
CTCCTGAA	-0.256
AAGATACC	-0.0459
AGACGTAA	0.301
AACCGAAG	-0.0371
GCCCTGCA	-0.167
CCTGCGAG	-0.0862
GCTAGACA	0.0886

Sequence	PBM E-score
GGATAGAA	-0.0372
AGGTAACG	-0.00149
AAGGGCGT	-0.0667
CATTTTCG	-0.0604
CACTCTCG	0.0218
ACAGGCTA	-0.0231
ACCGAGAT	-0.117
TGATTAAA	0.133
ATTTTAAG	0.109
CGTGATAG	-0.035
CATTACCC	-0.00064
CGGTTACA	0.367
CTAAACTA	-0.0708
CATCGCCC	-0.116
CGCCCAAG	-0.181
TCGAATAA	-0.121
CCAGACAC	-0.0987
CTCGGTCC	-0.218
CCCGTTTC	-0.125
AGGTGCCC	-0.192
CAGGATAG	0.0086
CAAACTAG	0.0172
ATGAACAT	0.323
AGAAAGAG	-0.0941
GAACAGTC	-0.323

Sequence	PBM E-score
ATCTTGGC	-0.22
AAGTAATC	0.36
CCATGCCA	-0.0773
ATTCTCGC	-0.0899
CAAGGTCA	-0.102
AGTGAAAG	-0.0314
ATCTTTCC	-0.136
ATGTGTGA	0.202
GATACGTA	0.255
AACATATC	0.316
CGGGAGAC	-0.221
GCTCGGGA	-0.321
AAGGGCGA	-0.0762
AGGAGCTG	-0.275
ACAGGGCG	0.0441
CACACTCC	-0.159
TCCAGGGA	-0.244
ATCCCGTG	0.108
CCTGTCAA	0.154
ACTCAGGC	0.00992
GTTATGTA	0.419
AGCACCCT	-0.222
GGCATGGA	-0.113
ATCCATTG	-0.0122
AGCGCCAG	0.00291

Sequence	PBM E-score
CTGAATGC	-0.227
ATGCCTGA	-0.15
ATTAGCCC	-0.166
CTCCCAAG	-0.0969
GTCCTTCA	-0.0496
CATCCGTC	-0.217
CGACAATA	0.203
AGATTGCC	-0.187
GTGATACA	0.124
TCGCATAA	0.0817
TACCCCAA	-0.191
CCCCAGCG	-0.28
CACTCGGG	-0.223
AAACCCTG	0.051
AAAATTAG	0.00411
AGGTGCTG	-0.197
CATACAAA	0.221
AACGAGAC	0.0285
AATACAGT	0.166
